In PubChem BioAssay AID493208 (National Center for Advancing Translational Sciences (NCATS), 2011):
Out of some 44,000 compounds screened, about 340 (0.77%) were called active. Not shown: some 5% with an inconclusive outcome. The call rests on the fitted dose curve; in most records, active means well fitted inhibition curve with a large enough effect; inconclusive means small, poorly fitted or top-dose-only effect; inactive means flat fitted curve, though single readings scatter. Some of the results follow.

assay: Acumen qHTS Assay for Inhibitors of the mTORC1 Signaling Pathway in MEF (Tsc2-/-, p53-/-) Cells: Sytravon; details: phospho-rpS6 immunofluorescence/PI, 24 h; series mostly up to 38.3 µM; activity change, negative = inhibition: at the top concentration;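 further: plate controls were DMSO for no effect and rapamycin for full effect; nearly all actives have a fitted effect of over 50% in size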
Summary of the method: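 Tsc2-/-, p53-/- MEFs (empty-vector stable line) in DMEM + 10% FBS were treated with compounds 24 h at 37 degree Celsius, fixed, and immunostained for phospho-rpS6 (Alexa-488) with propidium iodide counterstain. Laser-scanning cytometry gave % positive cells, normalized against 7.5 nM rapamycin and DMSO.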

**Q.** With Cc1cc(Cl)ccc1OCC(=O)N(Cc1ccco1)Cc1ccco1 as the molecule, how does the “activity change, negative = inhibition” value read?
**A.** inactive: -4.87%

**Q.** For COc1ccc(-c2nnc(C3CCN(S(=O)(=O)c4ccc(C)c(C)c4)CC3)o2)cc1, which “activity change, negative = inhibition” value is on record?
**A.** inactive: 5.97%

**Q.** Which “activity change, negative = inhibition” value does the source give for Cc1ccc(-n2ncc(C(=O)N3CCN(c4ccc(Cl)cc4)CC3)c2C2CCN(C(=O)OC(C)(C)C)CC2)c(C)c1 here?
**A.** inactive: -0.0346%

**Q.** Which “activity change, negative = inhibition” value does the source give for CCOC(=O)c1ccc(NC(=O)c2ccc(=O)n(Cc3cccc(C)c3)c2)cc1 here?
**A.** inactive: -16.6%

**Q.** Which “activity change, negative = inhibition” value does the source give for CC(O)CNc1nc2c(c(=O)n(Cc3ccc(Cl)cc3)c(=O)n2C)n1C (stereo unspecified) here?
**A.** inactive: -12.5%

**Q.** For COc1ccc(CCNC(=O)CCc2c(C)c3cc4c(C)coc4c(C)c3oc2=O)cc1OC, which “activity change, negative = inhibition” value is on record?
**A.** inactive: -1.55%

**Q.** For Cc1cc2c(cc1S(=O)(=O)CCC(=O)NCCc1ccccc1)OCC(=O)N2, which “activity change, negative = inhibition” value is on record?
**A.** inactive: 11.5%

**Q.** For CCC1CN(C(=O)Nc2ccc(C)c(F)c2)c2ccccc2S1 (stereo unspecified), which “activity change, negative = inhibition” value is on record?
**A.** inactive: 0.614%

**Q.** Which “activity change, negative = inhibition” value does the source give for CCOc1ccc(-c2nnc(SCC(=O)NCc3ccccc3)o2)cc1 here?
**A.** inactive: 0.917%

**Q.** With O=C1CN(C(=O)c2ccc(S(=O)(=O)N3CCCC3)cc2)C(c2ccccc2)c2cc(Br)ccc2N1 (stereo unspecified) as the molecule, how does the “activity change, negative = inhibition” value read?
**A.** inactive: -7.31%

**Q.** For Cc1ccc(NC(=O)CN2CCSc3ccc(S(=O)(=O)N4CCCC4)cc32)cc1C, which “activity change, negative = inhibition” value is on record?
**A.** inactive: -1.1%

**Q.** Which “activity change, negative = inhibition” value does the source give for CC(C)(C)C(=O)NC1(C(F)(F)F)C(=O)Nc2c1c(=O)[nH]c(=O)n2-c1ccccc1 (stereo unspecified) here?
**A.** inactive: -12.9%

**Q.** With CCOc1ccc(-n2nc3cc(C)c(NC(=O)c4cc(OCC)c(OCC)c(OCC)c4)cc3n2)cc1 as the molecule, how does the “activity change, negative = inhibition” value read?
**A.** inactive: 0.475%

**Q.** For COc1cc(OC)c(NS(=O)(=O)c2cc(-c3cnc(C4CC4)o3)ccc2C)cc1Cl, which “activity change, negative = inhibition” value is on record?
**A.** inactive: 0%

**Q.** For Cc1nnc(N2CCC(C(=O)NCCc3ccccc3)CC2)c2nn(-c3ccc(Cl)cc3)c(C)c12, which “activity change, negative = inhibition” value is on record?
**A.** inactive: 3.14%

**Q.** With CCN(CC)c1ccc(NC(=O)c2sc3nc4c(cc3c2N)CN(C)CC4)cc1 as the molecule, how does the “activity change, negative = inhibition” value read?
**A.** inactive: -1.03%

**Q.** For CCn1c(C(=O)N2CCCC(C(=O)N3CCN(c4cc(C)ccc4C)CC3)C2)cc2sccc21 (stereo unspecified), which “activity change, negative = inhibition” value is on record?
**A.** inactive: 1.21%

**Q.** Which “activity change, negative = inhibition” value does the source give for COc1cc(OC)c(OC)cc1CNc1sc2c(c1C(=O)Nc1ccccc1OC)CCC2 here?
**A.** inactive: -20.7%

**Q.** Which “activity change, negative = inhibition” value does the source give for O=C(Nc1ccc2nc(SCC(=O)N3CCc4ccccc43)sc2c1)c1cccc(Cl)c1 here?
**A.** inactive: -8.77%

**Q.** For CN(C(=O)CCS(=O)(=O)c1cc2c(cc1Cl)NC(=O)CO2)C1CCCCC1, which “activity change, negative = inhibition” value is on record?
**A.** inactive: -0.369%

**Q.** For Cc1ccc(CCNC(=O)CCS(=O)(=O)c2cc3c(cc2C)NC(=O)CO3)cc1, which “activity change, negative = inhibition” value is on record?
**A.** inactive: -0.388%

**Q.** Which “activity change, negative = inhibition” value does the source give for Cc1nncn1-c1ccc(C(=O)Nc2cc(F)ccc2F)cc1 here?
**A.** inactive: -0.0669%

**Q.** With COc1ccc(NC(=O)CSc2nc3nc(C)c(Cc4ccccc4Cl)c(C)n3n2)cc1OC as the molecule, how does the “activity change, negative = inhibition” value read?
**A.** inactive: 12.4%

**Q.** Which “activity change, negative = inhibition” value does the source give for COc1ccc(C)cc1NS(=O)(=O)c1cc2c3c(c1)CC(=O)N3CCC2 here?
**A.** inactive: 2.65%

**Q.** For CCn1c(=N)c(C(=O)NC2CCCCC2)cc2c(=O)n3cc(C)ccc3nc21, which “activity change, negative = inhibition” value is on record?
**A.** inactive: -0.368%

**Q.** With Cc1ccccc1CCNC(=O)c1cc2cc(S(=O)(=O)N3CCCCC3)ccc2n1C as the molecule, how does the “activity change, negative = inhibition” value read?
**A.** inactive: -11.8%

**Q.** Which “activity change, negative = inhibition” value does the source give for COc1ccc(-n2c(=O)c3ccccc3n(CC(=O)NCCc3ccc(OC)c(OC)c3)c2=O)cc1 here?
**A.** inactive: -3.86%

**Q.** With COc1cc2c(cc1OC)C(COc1cc(C)cc(C)c1)N(C(=O)COc1ccccc1)CC2 (stereo unspecified) as the molecule, how does the “activity change, negative = inhibition” value read?
**A.** inactive: -15.5%

**Q.** Which “activity change, negative = inhibition” value does the source give for COc1ccc(NC(=O)c2cc3c(=O)n(Cc4cccnc4)ccc3nc2C)cc1OC here?
**A.** inactive: -2.37%

**Q.** With COc1ccc(Cl)cc1NC(=O)CCCN1C(=O)C(c2ccccc2)Oc2cccnc21 (stereo unspecified) as the molecule, how does the “activity change, negative = inhibition” value read?
**A.** inactive: -21.3%

**Q.** With CCOCCCN(Cc1ccco1)S(=O)(=O)c1cc2c(cc1C)NC(=O)CO2 as the molecule, how does the “activity change, negative = inhibition” value read?
**A.** inactive: 9.46%

**Q.** For COc1ccc(-n2ncc(C(=O)Nc3cccc(C(F)(F)F)c3)c2C2CCN(C(=O)OC(C)(C)C)CC2)cc1, which “activity change, negative = inhibition” value is on record?
**A.** inactive: -3.4%

**Q.** For Cc1ccc(C2=Nc3ccccc3N(CC(=O)NCc3ccccc3Cl)C(=O)C2)cc1C, which “activity change, negative = inhibition” value is on record?
**A.** inactive: 2.59%

**Q.** Which “activity change, negative = inhibition” value does the source give for COc1ccc(N2Cc3cccc(C(=O)Nc4ccc(F)cc4)c3C2=O)cc1 here?
**A.** inactive: -0.463%

**Q.** Which “activity change, negative = inhibition” value does the source give for O=C(Nc1c(C(=O)N2CCN(c3ccccc3)CC2)oc2ccccc12)c1ccco1 here?
**A.** inactive: 0.638%

**Q.** For Cc1c(C(=O)NCCc2ccc(Cl)cc2)sc2nc3n(c(=O)c12)CCCC3, which “activity change, negative = inhibition” value is on record?
**A.** inactive: -0.566%

**Q.** For Cc1ccccc1CN1c2ccccc2-c2nc(SCC(=O)NCc3ccccc3)ncc2S1(=O)=O, which “activity change, negative = inhibition” value is on record?
**A.** inactive: -17.1%

**Q.** With Cc1ccc2nc(CNC(=O)c3ccccc3)[nH]c2c1 as the molecule, how does the “activity change, negative = inhibition” value read?
**A.** inactive: -0.584%

**Q.** With Cc1cccc(-c2noc(CSc3nc(-c4ccc(F)cc4)cc(=O)[nH]3)n2)c1 as the molecule, how does the “activity change, negative = inhibition” value read?
**A.** inactive: 0%

**Q.** For COc1ccc(CCNC(=O)C(=O)NCC(c2ccc3c(c2)OCO3)N2CCOCC2)cc1OC (stereo unspecified), which “activity change, negative = inhibition” value is on record?
**A.** inactive: -4%

**Q.** For CCOc1ccc(NC(=O)c2oc3ccccc3c2NC(=O)c2c(F)cccc2F)cc1, which “activity change, negative = inhibition” value is on record?
**A.** inactive: -23.3%

**Q.** With CCOc1ccc(NC(=O)C2CCCN(S(=O)(=O)c3ccc4[nH]c(=O)ccc4c3)C2)cc1 (stereo unspecified) as the molecule, how does the “activity change, negative = inhibition” value read?
**A.** inactive: -2.64%

**Q.** With Cc1ccc(NC(=O)C(=O)c2cc(C)n(-c3ccc(F)cc3)c2C)cc1C as the molecule, how does the “activity change, negative = inhibition” value read?
**A.** inactive: -0.0615%

**Q.** With COc1ccccc1N1CCN(C(=O)CSc2nc3ccccc3nc2Cc2ccccc2)CC1 as the molecule, how does the “activity change, negative = inhibition” value read?
**A.** inactive: 3.34%

**Q.** Which “activity change, negative = inhibition” value does the source give for COc1cccc(-n2ccn(CC(=O)c3ccc(F)cc3)c(=O)c2=O)c1 here?
**A.** inactive: 1.03%

**Q.** For Cc1ccc(CSC2=Nc3ccccc3C3=NC(CC(=O)NC4CCCCC4)C(=O)N23)cc1 (stereo unspecified), which “activity change, negative = inhibition” value is on record?
**A.** inactive: 1.6%
